Hit rate of the full screen: of about 230,000 compounds, about 3,600 (1.6%) were called active. The shares of active, inactive and inconclusive entries below differ from those in the screen. The call rests on the fitted dose curve; in most records, active means well fitted inhibition curve with a large enough effect (not every such curve was filed as active); inconclusive means small, poorly fitted or top-dose-only effect, or another doubt; inactive means no such curve, though single readings can be large or run the other way. Potencies of inconclusive entries are doubtful fits and often do not repeat.
Biological target: Lysine-specific demethylase 4E (Homo sapiens) (UniProt B2RXH2)
Chain of UniProt B2RXH2 (B2RXH2 whole entry, looked up, the tested form may be a part): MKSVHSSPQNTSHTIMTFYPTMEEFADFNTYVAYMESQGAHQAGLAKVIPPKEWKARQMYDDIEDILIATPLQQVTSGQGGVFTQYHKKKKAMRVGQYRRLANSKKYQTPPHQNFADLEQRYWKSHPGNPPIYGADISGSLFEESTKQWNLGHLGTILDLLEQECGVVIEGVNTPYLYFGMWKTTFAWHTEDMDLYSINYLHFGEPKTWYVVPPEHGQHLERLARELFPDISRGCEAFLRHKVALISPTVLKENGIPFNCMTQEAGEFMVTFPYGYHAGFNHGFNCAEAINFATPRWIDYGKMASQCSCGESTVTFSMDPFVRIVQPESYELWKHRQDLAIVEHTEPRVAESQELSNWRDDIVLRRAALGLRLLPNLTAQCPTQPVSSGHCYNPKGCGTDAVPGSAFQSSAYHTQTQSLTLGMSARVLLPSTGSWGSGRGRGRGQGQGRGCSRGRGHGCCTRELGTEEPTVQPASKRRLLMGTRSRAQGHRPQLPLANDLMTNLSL
Test: qHTS Assay for Inhibitors of Human Jumonji Domain Containing 2E (JMJD2E)
Conditions: JMJD2E catalytic domain, FDH-coupled NADH fluorescence (FDH is formaldehyde dehydrogenase); series mostly up to 57.1 µM; activity change, negative = inhibition: at the top concentration
Further: nearly all actives have a fitted effect of over 50% in size.
Potency means the concentration at half of the fitted maximal effect; tags describe the fitted curve by direction and shape.
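Wherever activity change, negative = inhibition is given: 0% = wells with enzyme and -100% = buffer wells without enzyme.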

SMILES	activity change, negative = inhibition	Potency
COc1cccc(-c2cc(C(=O)N3CCCc4ccccc43)no2)c1	inactive: 8.32%	
CC(=O)NCCC(=O)N1CCCC(C(=O)c2ccc3c4c(cccc24)CC3)C1 (stereo not given)		inconclusive: 28.2 µM [inhibitor, partial curve]
Cc1cc(C)c2c(CC(=O)O)coc2c1	inactive: 0.0524%	
COc1ccc(-n2c(-c3ccccc3)c[n+]3c2CCC3)cc1	inactive: 7.33%	
O=C(N/N=C/C1CC=CCC1)c1ccc(O)cc1O (stereo not given)	inactive: -29.1%	
CCC(CC)C(=O)Nc1cccc(C(=O)Nc2ccc3c(c2)OCO3)c1	inactive: 4.97%	
Cc1ccc(NC(=O)c2oc3ccc(S(=O)(=O)N4CCOCC4)cc3c2C)c(C)c1		inconclusive: 1.58 µM [inhibitor, partial curve]
Nc1cc(-c2ccncc2)c[nH]c1=O		active: 1.12 µM
CCCS(=O)(=O)c1nc(S(=O)(=O)c2ccc(C)cc2)c(NCc2ccc3c(c2)OCO3)s1	inactive: -0.122%	
Cc1cc(C)c2c(N)c(-c3nnc(SCc4ccc(Cl)cc4)n3C)sc2n1		inconclusive: 8.91 µM [inhibitor, single point]
C=CC1=C2C=C(C3CC3)N(CCOC)C=C2C(=O)C(C)(OC(=O)c2ccco2)C1=O (stereo not given)	inactive: -23.4% [at 11.4 µM]	
CCN(CC)c1ccc(/C=N/n2c(-c3ccccc3Br)n[nH]c2=S)cc1		inconclusive: 39.8 µM [inhibitor, single point]
CN(C)C(=N)c1n[nH]nc1SCc1ccc(Cl)c(Cl)c1		inconclusive: 25.1 µM [inhibitor, single point]
COc1ccc(NC2=NCC(=O)N2c2ccccc2)c(OC)c1	inactive: -1.13%	
COc1ccc(N2C(=O)CSC23C(=O)N2c4c(cccc43)C(C)=CC2(C)C)cc1 (stereo not given)	inactive: -4.73%	
COC(=O)c1sc(-c2ccccc2)cc1NC(C)=O		inconclusive: 35.5 µM [inhibitor, single point]
CCN1CCN(C(=S)Nc2ccc3nc4n(c(=O)c3c2)CCCCC4)CC1		inconclusive: 28.2 µM [inhibitor, partial curve]
O=P(c1ccccc1)(c1ccccc1)c1nc(-c2ccccc2)oc1N1CCOCC1		inconclusive: 39.8 µM [inhibitor, single point]
COc1ccccc1-n1c(C)nc2cc(C(=O)O)ccc21	inactive: 3.27%	
N#Cc1cccc(CS(=O)(=O)c2nc3ccccc3s2)c1	inactive: 3.3%	
Nc1nonc1-n1nnc(C(=O)N/N=C/c2ccccc2Cl)c1COc1ccc(F)cc1	inactive: 5.89%	
CCOC(=O)/C=C/COc1ccccc1[N+](=O)[O-]	inactive: 4.53%	
COc1cc(CN2CCN(Cc3ccc(C)cc3)CC2)c([N+](=O)[O-])cc1OC		inconclusive: 39.8 µM [inhibitor, single point]
Cn1nccc1/C=C(/C#N)S(=O)(=O)c1ccccc1	inactive: 4.94%	
CC(C)CN1CCC(C(=O)N2CCN(c3ccccc3F)CC2)CC1		inconclusive: 39.8 µM [inhibitor, single point]

SMILES	activity change, negative = inhibition	Potency
Fc1ccc2[nH]c3c(N4CCSCC4)ncnc3c2c1		inconclusive: 14.1 µM [inhibitor, partial curve]
CCOC(=O)c1sc(NC(=O)c2cc3ccccc3o2)nc1C		inconclusive: 39.8 µM [inhibitor, single point]
CCn1c(SCC(N)=O)nnc1-c1ccc(S(=O)(=O)N2CCN(C)CC2)cc1		inconclusive: 25.1 µM [inhibitor, partial curve]
Cc1cc(Cl)ccc1OC(C)C(=O)Nc1ccccc1N1CCOCC1 (stereo not given)	inactive: -5.5%	
O=C(Oc1ccc2c(=O)c(Cl)coc2c1)c1cccnc1		inconclusive: 25.1 µM [inhibitor, single point]
COc1ccccc1NC(=O)Cc1csc(NC(=S)Nc2ccccc2)n1	inactive: 6.39%	
c1ccc(-n2c(SCC3CCCCO3)nnc2-c2cnccn2)cc1 (stereo not given)	inactive: -9.79%	
COc1ccc(-c2cc3nc(-c4ccccc4)cc(N4CCC(O)CC4)n3n2)cc1		inconclusive: 25.1 µM [inhibitor, partial curve]
Clc1ccc(CSc2ncccn2)cc1	inactive: -1.63%	
COc1ccc(C(=O)Nc2ccc3cn[nH]c3c2)c(OC)c1		inconclusive: 39.8 µM [inhibitor, single point]
CCCCCCN=C(C)c1ccccc1O	inactive: 6.83%	
O=C(N/N=C/c1ccccc1C(F)(F)F)c1ccc(O)cc1	inactive: -3.61%	
CC(C)c1nnc(N2C(=O)C(O)=C(C(=O)c3cccs3)C2c2ccccc2)s1 (stereo not given)		inconclusive: 15.8 µM [inhibitor, partial curve]
Cc1ccccc1C(=O)Nc1nnc(-c2ccco2)s1		inconclusive: 39.8 µM [inhibitor, single point]
Cc1cc(C(F)(F)F)nn1-c1nc(-c2ccco2)cc(C(F)(F)F)n1		inconclusive: 31.6 µM [inhibitor, partial curve]
CC(C)Cc1nc(N2CCN(C(=O)c3ccco3)CC2)c(C#N)c2c1CCC2		inconclusive: 28.2 µM [inhibitor, partial curve]
O=C(Nc1ccc(Cl)c(Cl)c1)Nc1cc(S(=O)(=O)N2CCOCC2)ccc1N1CCCC1		inconclusive: 39.8 µM [inhibitor, single point]
CCOC(=O)N/N=C(/C)c1ccc(N2C(=O)C3CCCCC3C2=O)cc1 (stereo not given)	inactive: 0.244%	
CCOC(=O)c1c(NC(=O)c2ccco2)sc2c1CCCCC2		inconclusive: 25.1 µM [inhibitor, partial curve]
CSc1ccccc1NC(=O)c1noc2c1CCC2	inactive: -6.33%	
COc1cccc(CN2CCN(c3ncccn3)CC2)c1		inconclusive: 35.5 µM [inhibitor, single point]
CSc1nc2ccccc2n1Cc1c(Cl)cccc1Cl	inactive: -1.77%	
O=C(O)c1ccc(-n2c(-c3ccccc3)n[nH]c2=S)cc1		inconclusive: 39.8 µM [inhibitor, single point]
CC(C)c1ccc(/C=C(/C#N)c2nnc(NC(=O)c3ccccc3)s2)cc1		inconclusive: 5.01 µM [inhibitor, full curve]
COc1ccc(-c2oc3ccccc3c(=O)c2O)cc1		inconclusive: 7.94 µM [inhibitor, full curve]

From PubChem BioAssay AID2147 (National Center for Advancing Translational Sciences (NCATS), 2009)
